The whole screen tested about 52,000 compounds, of which about 4,300 (8.3%) were called active. No stated cut-off is given here; in the data, active means survival mostly below about 52% (no sharp cut-off); inactive means mostly above about 56%. The list shows a part of the results.

The test system of the experiment is DeltatarO mutant. Nature of the experiment: S. aureus survival, RN4220 and DeltatarO strains – OD600, teichoic acid synthesis inhibitors, primary screen (AID 463173). To be noted: S. aureus RN4220 wild type/DeltatarO growth, OD600, 18 h, stronger effect = lower value, screened at 18.75 µg/mL (by protocol).
`COc1ccc(CNC(=O)CCn2nc(C)c3c(C)n(-c4ccccc4)nc3c2=O)c(OC)c1`: the survival is inactive: 78%.
The value for `Cc1cccc(NC(=O)c2cc(S(=O)(=O)N3CCN(c4ccccc4F)CC3)ccc2F)c1C` was inactive: 84%; that for `CNC(=O)Cn1c(=O)c2cccn2c2ccc(F)cc21` was inactive: 92%.
For `COc1cc(C2c3c(-c4ccc(C)cc4)n[nH]c3C(=O)N2c2ccc(F)cc2)ccc1O` (configuration not stated) the value was inactive: 95%; for `O=C(CCNS(=O)(=O)c1cccc2nsnc12)NCc1ccccc1`, inactive: 54%.
For `CC(C)CNc1ncnc2c1nnn2C` the value was inactive: 95%; for `COc1ccc(CNC(=O)c2ccc3nc(CCc4ccccc4)oc3c2)c(OC)c1`, inactive: 135%.
With `Cc1c(Cl)cccc1-n1ncc(C(=O)NCc2cccs2)c1C1CCN(C(=O)OC(C)(C)C)CC1`, the survival is inactive: 95%.
With `COC(=O)c1c(NC(=O)c2cc(OC)c(OC)c(OC)c2Br)sc2c1CCC(C)C2` (configuration not stated), the survival is inactive: 46%.
The value for `Cc1cc(=O)n(Cc2cccc(F)c2)c2c1c(C)nn2-c1cccc(F)c1` was inactive: 118%; that for `CCc1cccc(CC)c1-n1nnc2c(sc3nc(C)cc(C)c32)c1=O` was inactive: 83%; that for `Cc1ccccc1CN1c2ccccc2-c2nc(SCC(N)=O)ncc2S1(=O)=O` was inactive: 85%.
On to `O=C(CSc1nc(-c2ccc(F)cc2)[nH]c1-c1ccccc1)Nc1ccccc1`, for which the survival is inactive: 67%.
The value for `Clc1ccc(OCc2nc3ccccc3n2Cc2ccccc2)c(Cl)c1` was active: 14%; that for `N#C/C(=C/c1cn(Cc2ccccc2Cl)c2ccccc12)C(=O)Nc1cccc(Cl)c1` was inactive: 92%.
The value for `COc1ccc(OC)c(C2C(C(=O)N3CCCCC3)=C(C)Nc3nc4ccccc4n32)c1` (configuration not stated) was inactive: 63%; that for `CC(C)(C)c1ccc(CN(Cc2ccco2)c2cnc(S(C)(=O)=O)nc2C(=O)Nc2ccc(F)cc2)cc1` was inactive: 102%; that for `Cc1cc(C)c(NC(=O)Cn2c(=O)nc(-c3ccccc3)c3cc(Cl)ccc32)c(C)c1` was inactive: 75%.
The value for `COc1cc(NC(=O)N2CCC3(CC2)Nc2cc(F)ccc2-n2cccc23)cc(OC)c1OC` was inactive: 105%; that for `COc1ccccc1NC(=O)C1CCN(C(=O)c2ccccc2)CC1` was inactive: 95%; that for `COc1ccc2c(c1)N(C)/C(=C1/SC(=O)N(c3ccccc3)C1=O)S2` was inactive: 94%.
As for `COCCn1ccc2c(OCC(=O)Nc3ccccc3F)cccc2c1=O`, the survival was active: 25%.
For `O=C(c1cc(-c2ccccc2)on1)N1CCCCC1` the value was inactive: 95%.
The value for `CCOC(=O)N1CCc2c(sc3c2c(=O)n(CCc2ccccc2)c(=O)n3CC(=O)Nc2cccc(C)c2)C1` was inactive: 89%; that for `Cc1ccc(C)c(NC(=O)c2nn(C)c3c2CS(=O)(=O)c2ccccc2-3)c1` was inactive: 78%; that for `CC(C)(C)C1CCc2c(sc3nnn(CCOc4ccccc4)c(=O)c23)C1` (configuration not stated) was inactive: 72%.
For `COc1cc(NC(=O)c2nc3ccccc3nc2N2CCCCC2)cc(OC)c1OC` the value was inactive: 87%.
With `Cc1cccc(-c2nc(CSCC(=O)NCCc3ccc(Cl)cc3)c(C)o2)c1`, the survival was active: -7%.
The value for `CC1CCCN(C(=O)C2CCN(CC3CC=CCC3)CC2)C1` (configuration not stated) was inactive: 109%.
For `Cc1cccc(-c2nnc(SCC(=O)OC(C)C)n2C)c1` the value was inactive: 67%; for `Cc1ccc(-c2nn(CC(=O)NC3CCCC3)c3c2cnc2ccccc23)cc1`, inactive: 118%; for `Cc1ccc(C)c(NC(=O)CN2C(=O)c3cccnc3Oc3ccc(C)cc32)c1`, inactive: 80%.
On to `COc1ccccc1CNC(=O)C1CCN(S(=O)(=O)c2ccc3c(ccn3C)c2)CC1`, for which the survival was inactive: 126%.
In the case of `NC(=O)Cc1nnc(-c2ccccc2)c(-c2ccccc2)n1`, the survival was inactive: 78%.
The value for `CCCCn1c(NCc2cc(Br)ccc2O)nc2ccccc21` was active: 42%; that for `COC(=O)c1c(-c2cccs2)csc1NC(=O)c1ccc(OC)c(OC)c1` was inactive: 71%; that for `Cc1cccc(NC(c2ccccc2C)c2ccc3ccc(C)nc3c2O)n1` (configuration not stated) was active: 0%.
For `CCNC(=O)C1CCN(c2nnc(C)c3c(C)n(-c4ccc(OC)cc4)nc23)CC1` the value was inactive: 80%.
The value for `CN1C(=O)/C(=C/C=C2\SCCN2C)OC1=S` was inactive: 63%.
For `O=S(=O)(NC1CC1)c1cccs1`, the survival is inactive: 93%.
For `Cc1cc(C)n(-c2nc3cc(Cl)ccc3nc2Nc2ccc(CC(=O)O)cc2)n1` the value was inactive: 127%.
The value for `COc1ccc2nc(NC(=O)c3nc(SCc4ccccc4F)ncc3Cl)sc2c1` was inactive: 71%; that for `CC1=C(C(=O)Nc2ccccc2)C(c2ccncc2)n2nc(SCc3ccccc3F)nc2N1` (configuration not stated) was inactive: 93%.
For `CCC(C)Nc1oc(-c2ccc(COc3ccc(Cl)cc3)o2)nc1C#N` (configuration not stated) the value was inactive: 56%.
Turning to `O=C(Nc1ccc(OCc2cc(=O)n3ccccc3n2)cc1)c1ccccc1Cl`, the survival is inactive: 60%.
For `CCc1nnc(NC(=O)c2c(O)c3ccccc3[nH]c2=O)s1` the value was inactive: 84%.
For `Cc1cccc(OCC(O)Cn2c(=N)n(CCN3CCCCC3)c3ccccc32)c1` (configuration not stated) the value was inactive: 86%.
For `CCN(CC)c1nc2c(S(=O)(=O)c3cccc(Cl)c3)nnn2c2ccsc12` the value was inactive: 62%; for `CCC(C)NC(=O)CSc1nc2c(sc3ccccc32)c(=O)n1CCc1ccc(OC)c(OC)c1` (configuration not stated), inactive: 66%; for `O=C(NC1CC1)C1CCN(C(=O)NCc2ccccc2)CC1`, inactive: 66%.
Regarding `CCc1ccc(CN(Cc2ccco2)C(=O)COc2ccc(Cl)c(C)c2)cc1`, the survival is active: 38%.
For `Cc1ccc2c(c1)NC(=O)c1cccnc1O2` the value was inactive: 94%; for `Cc1ccc(-c2nc(CS(=O)(=O)CC(=O)NCCc3ccccc3)c(C)o2)cc1`, inactive: 100%; for `COc1ccc(S(=O)(=O)c2c(SC)nn(CC(=O)Nc3cccc(C)c3C)c2N)cc1`, inactive: 92%.
The value for `Cc1nnc(SCc2ccc(Cl)cc2Cl)o1` was inactive: 80%; that for `COc1ccc(CNC(=O)Cn2nc(N3CCN(c4ccccc4)CC3)ccc2=O)c(OC)c1` was active: -2%; that for `COC(=O)c1cccc(NC(=O)c2nsc3ccccc23)c1` was active: -1%.
The value for `COc1ccc(CCNC(=O)c2ccc3c(c2)N(Cc2ccccc2F)C(=O)c2ccccc2S3=O)cc1OC` (configuration not stated) was inactive: 73%; that for `CS(=O)(=O)N1CCC(C(=O)Nc2ccccc2)CC1` was inactive: 100%; that for `CCOc1ccccc1CNC(=O)CCc1c(C)nn(-c2ccc(N3CCOCC3)nn2)c1C` was inactive: 77%.
As for `CCN(CC)S(=O)(=O)c1ccc(C(=O)NCCSc2c(-c3ccc(C)cc3)[nH]c3ccccc23)cc1`, the survival was inactive: 79%.
The value for `COc1ccc(N2CCN(S(=O)(=O)CCNC(=O)COc3ccccc3F)CC2)cc1` was inactive: 83%; that for `CCN1CCN(C(=O)Cn2c(-c3cccs3)cc3ccccc32)CC1` was inactive: 90%; that for `COc1cccc(OCc2cc(=O)n3c(-c4ccccc4)csc3n2)c1` was inactive: 74%.
For `COc1nc(-c2ccccc2)ccc1-c1noc(-c2ccccc2Br)n1` the value was active: -1%.
For `Cc1c(-c2nc(-c3ccccc3F)no2)nnn1-c1cc(F)ccc1F` the value was inactive: 84%; for `CCOC(=O)C1=C(CC)NC2=C(C(=O)CCC2)C1c1ccccc1` (configuration not stated), inactive: 94%.
For the molecule `Cc1ccc(CNC(=O)CSc2c3c(nc4cc(Cl)ccc24)CCCC3)cc1`, the survival is inactive: 80%.
For `CCCNC(=O)C(C)n1nc(C)c2c(C)n(-c3ccccc3)nc2c1=O` (configuration not stated) the value was inactive: 102%.
The value for `O=c1oc2cc(O)ccc2cc1-c1nnc(Nc2ccccc2F)s1` was inactive: 59%.
For `CCOC(=O)CSc1nc(-c2ccc(Cl)cc2)cc(C(F)(F)F)c1C#N`, the survival was inactive: 69%.
The value for `CC1Cc2ccccc2N1C(=O)CSc1nnc2n1C(C)(C)Cc1ccccc1-2` (configuration not stated) was inactive: 77%.
In the case of `CN1C(=O)c2ccccc2Sc2ccc(NC(=O)NCc3cccc(Cl)c3)cc21`, the survival is inactive: 78%.
With `Cc1ccc(NC(=O)CCNS(=O)(=O)c2cccc3nonc23)cc1Cl`, the survival was active: 39%.
For `Cc1cn2c(=O)cc(COC(=O)c3cccc(NC(=O)COc4ccccc4C)c3)nc2s1` the value was inactive: 85%; for `CCC(=O)n1nc(-c2ccc(OC)cc2)nc1SC`, inactive: 86%; for `Cc1ccccc1C(=O)NCCc1csc(-c2ccc(C(F)(F)F)cc2)n1`, inactive: 89%.
For `COc1ccc(-n2c(-c3ccc(C)cc3)cc3c2CC(C)(C)CC3=O)c(OC)c1`, the survival is inactive: 101%.
For `Cc1ccc(Cc2nc3ccccc3nc2SCC(=O)N2CCCc3ccccc32)cc1` the value was inactive: 95%; for `CSCCC(NS(=O)(=O)c1ccc2c(c1)oc(=O)n2C)C(=O)N1CCN(c2cc(Cl)ccc2C)CC1` (configuration not stated), inactive: 75%.
The value for `Cc1cc2c(cc3c(SCc4ccc(Cl)cc4)nnc(C)n32)o1` was inactive: 57%.
For `COc1ccc(NC(=O)CSc2oc(-c3ccc(C)cc3)nc2S(=O)(=O)c2ccc(C)cc2)c(OC)c1` the value was inactive: 60%.
As for `CCN(CCCNC(=O)c1cc2cc3cc(OC)ccc3nc2s1)c1cccc(C)c1`, the survival is active: 46%.
Turning to `Cc1cccc(N2CCN(C(=O)c3nn(C)c4c3CSc3ccccc3-4)CC2C)c1` (configuration not stated), the survival was inactive: 82%.
The value for `Cc1ccc(-c2nc3sccn3c2Nc2ccccc2C)cc1` was inactive: 48%; that for `COc1cccc(CNC(=O)CN2C(=O)CSc3ccc(S(=O)(=O)N(C)C)cc32)c1` was inactive: 86%; that for `CC1CCN(C(=O)c2cnn(-c3ccc(Cl)cc3)c2C2CCN(C(=O)OC(C)(C)C)CC2)CC1` was inactive: 76%.
The value for `CC(C)(C)C1CCc2c(sc(NC(=O)c3cccc(Cl)c3)c2C(N)=O)C1` (configuration not stated) was inactive: 70%; that for `Cn1c(SCC(=O)Nc2ccccc2)nc2ccccc2c1=O` was inactive: 95%; that for `COc1nc(-c2ccccc2)ccc1-c1noc(C(C)C)n1` was inactive: 91%.
In the case of `CN(C)C(=O)CCSc1nc2cc(Cl)ccc2o1`, the survival is inactive: 84%.
The value for `Cc1ccc(NS(=O)(=O)c2ccc3c4c(cccc24)C(=O)N3)c(C)c1` was inactive: 58%.

Values taken from PubChem BioAssay AID463173 (ICCB-Longwood Screening Facility, Harvard Medical School, 2010).
